Measurements as given in article PMC11043401.
These are yes or no findings as the source states them, for the method shown. For part of these data: Binding seen in cells or lysates may run through a third protein. Some binding calls cover weakened binding; strength is not graded here. For part of these data: Tags and fused reporters may be left off the sequences shown.

Key:
[1] = target: T1, eIF2α.1 full length fused to the GAL4 DNA binding domain (Arabidopsis thaliana) (UniProt Q9FE78); assay: two-hybrid; GAL4 system; eIF2α homologs on the DNA-binding domain (pGBT9, bait), SPA1 forms on the activation domain (pGAD424, prey); yeast AH109; growth on SD-Leu-Trp-His, 30 °C
T1 sequence: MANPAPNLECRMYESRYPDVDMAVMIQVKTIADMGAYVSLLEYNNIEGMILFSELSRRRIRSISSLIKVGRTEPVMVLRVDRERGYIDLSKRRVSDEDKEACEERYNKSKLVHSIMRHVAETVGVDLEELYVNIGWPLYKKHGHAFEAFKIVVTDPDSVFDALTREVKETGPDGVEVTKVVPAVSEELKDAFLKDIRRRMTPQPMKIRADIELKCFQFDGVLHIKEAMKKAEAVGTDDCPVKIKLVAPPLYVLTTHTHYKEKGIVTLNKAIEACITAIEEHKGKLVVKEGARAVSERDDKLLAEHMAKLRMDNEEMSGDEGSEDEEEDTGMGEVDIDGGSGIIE

[2] = target: T2, eIF2α.1-GFP (Arabidopsis thaliana) (UniProt Q9FE78); assay: condition: only etiolated seedlings kept in the dark; co-IP; as a3, but four-day-old etiolated seedlings kept in the dark
T2 sequence: T1 sequence

[3] = target: T2, eIF2α.1-GFP (Arabidopsis thaliana); assay: co-IP; total extracts of eIF2α.1-GFP or eIF2α.2-GFP seedlings mixed with extract of TAP-SPA1 seedlings; GFP-Trap; blots anti-cMyc and anti-GFP; four-day-old etiolated seedlings illuminated with white light for 4 h
[4] = target: T3, eIF2α.1-YC (Arabidopsis thaliana) (UniProt Q9FE78); assay: split reporter; BiFC; SPA1-YN and eIF2α-YC co-transfected into Arabidopsis Col-0 protoplasts; light condition
T3 sequence: T1 sequence

[5] = target: T4, eIF2α.1 of the pull-down assay of Supplementary Fig. 3 (Arabidopsis thaliana) (UniProt Q9FE78); assay: pull-down; pull-down of Supplementary Fig. 3; format not told in the text shown
T4 sequence: T1 sequence

B1: SPA1 full length fused to the GAL4 activation domain (protein, UniProt Q9SYX2 1-1029)
chain: MPVMERVAEETVATNNIQLKARVDDVPCNKLDARHNDMVIQSETANSDCPGSSAHRNVDLTKPPPPEEAAGAKLSVEELTLGNYRIVQGSNNTNVDSPRAGKFEHLYRLARGSAFRAGDGDLDSQPRDMDQMLSRIRQQLAGAPSERQNLKPFMSRRSDQNLEAFSERLRAAGENSIMNAPALISEGVQMKTPVSSSNFSQLLLKRAMKGKGVVGKNQETPPEFVSDQDLGSKEKKLDISKSPTPHDVLPLKSSPKGNGMVSHGDGNHSKSSIGISLREFLRSSYAKREKRHGLCLFRQLVELVDSAHSKRLFLLDLRPSLFTLVPSKKLRYIGNFGKNDLESDVDEDLNRRRPVVEESSSGGRDSKKRKMDLHLNSPGNQLQATSTGRPFKRKSPVIDLNMVDARNPDSCELQQQDYIKNLSVSSVSRKQSMSTWLEEQWYTCPEEINGEDIGEKSNIYALGVLLFELLCHCESGEMHAAMMADLRHRILPPTFLSKYPKEAGFCLWLLHPEPSSRPSARDILKSELICEDDSVKSTAAAEEISELLLHFLSSLEVQKKKKASKLLQDIQTLEDDIKEAERRYSSNVSLVRSHGAIEKRVQSSPLDEHCTTSSALFVPTANTDRLMSNIRQLEDAYFFMRSQINLSSSAATARSDKTLKDRDRCSENQNENQDMSTKGKSSDQLEVFFEGLCKFARYSKFETCGTIRSGDLLNSASVVCSLSFDPDEEHIAAAGISKKIKIFDFNAFMNESVGVHYPLVEMVNKSKLSCVCWNSYIKNYLASTDYDGVVQIWDAGTGQGFSQYTEHQKRAWSVDFSPSDPTKFVSGSDDCSVKLWSINEKRSLGTIWSPANVCCVQFSSYSNHLLAFGSADYKVYCYDLRYVKTPWCTLAGHEKAVSYVKFMDSETIVSASTDNSLKLWNLNKTNSSGLSPGACSLTYKGHTNQKNFVGLSVLDGYIACGSETNEVYSYYKSLPMPMTSYKFGSVDPISGNEYFDDNGQFVSSVCWRKKSNMLVAANSTGNMKLLKLV
With B1 the binding [1] was “binds”.

B2: tandem affinity purification cMyc-SPA1 (TAP-SPA1) (protein, UniProt Q9SYX2 1-1029)
chain: B1 chain
B2 was tested, and the binding [2] was “no binding” and the binding [3] was “binds”.

B3: SPA1-YN (protein, UniProt Q9SYX2 1-1029)
chain: B1 chain
In the case of B3, the binding [4] is reported as “binds”.

B4: SPA1 kinase domain fused to the GAL4 activation domain (domain or fragment, UniProt Q9SYX2 188-529)
chain: VQMKTPVSSSNFSQLLLKRAMKGKGVVGKNQETPPEFVSDQDLGSKEKKLDISKSPTPHDVLPLKSSPKGNGMVSHGDGNHSKSSIGISLREFLRSSYAKREKRHGLCLFRQLVELVDSAHSKRLFLLDLRPSLFTLVPSKKLRYIGNFGKNDLESDVDEDLNRRRPVVEESSSGGRDSKKRKMDLHLNSPGNQLQATSTGRPFKRKSPVIDLNMVDARNPDSCELQQQDYIKNLSVSSVSRKQSMSTWLEEQWYTCPEEINGEDIGEKSNIYALGVLLFELLCHCESGEMHAAMMADLRHRILPPTFLSKYPKEAGFCLWLLHPEPSSRPSARDILKSELI
With B4 the binding [1] was “binds”.

B5: SPA1 of the pull-down assay of Supplementary Fig. 3 (protein, UniProt Q9SYX2 1-1029)
chain: B1 chain
For B5, the binding [5] was “binds”.
